Test results published in the supplement of paper PMC10126150.
Values marked as one replicate rest on one cluster of the flow cell; about a third of the high ones do not repeat.

Test system: ATP
Assay: switch fluorescence ratio, 500 uM ATP over buffer (Cy3 cluster intensity, sum of 5 cycles each) (fold (ratio)); higher = stronger signal-on switching upon ATP binding; sequences stand for … in TCGTCGGCAGCGTCAGATGTGTATAAGAGACAGTTTTTTTTTTTTTTTTTTTTTTTTT…TC
Settings: aptamer strand: ATP DNA aptamer (quencher-CACCTGGGGGAGTATTGCGGAGGAAGG + anchor), 100 nM annealed; ATP concentration: 500 uM; one replicate
How it was run: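 The quencher-labelled ATP aptamer, at 100 nM, was annealed to Cy3-labelled switching-strand clusters on a modified Illumina MiSeq flow-cell. The clusters were imaged in selection buffer, then after 15 min with 500 uM ATP at 22 °C, and this buffer/ATP cycle ran five times with NaOH stripping and re-annealing between runs. Per-cluster fluorescence ratios, summed target-cycle over summed buffer-cycle Cy3 intensity, were averaged per switch-domain sequence. Clusters outside 100-1000 RFU were excluded.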
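Also: ATP exposure 15 min at 22 °C before imaging.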

Sequence | switch fluorescence ratio
ACTATGTAGC | 1.06
AGTCGTGGAG | 0.998
TGAATATAT | 0.931
TTATACTAGT | 0.972
ACTATTCTGG | 0.963
GAGAGCGACG | 0.991
CGACGGTTTA | 1.07
TTCGACATCA | 0.99
TCTGAAATGC | 2.67
TTAATATAAA | 0.976
GGGAATCCGA | 1.1
TTGCGGGAGG | 0.968
GCGAAAAACA | 0.997
TTCTGTGAAC | 2.36
TAGTTATAAC | 1.01
GTGAAGCGGG | 1.04
ACCCTACCCG | 1.26
ATGCAGTAAC | 1.18
TAAACCAAAG | 1.06
GGCCTATTC | 1.02
CGGCATGCTC | 1.25
TCCGTTTTGT | 1.03
AGTCTTTCCC | 0.986

Sequence | switch fluorescence ratio
ATTTACAGAG | 1.06
GCTTCTAGAT | 0.997
TGTGACTTTT | 1.02
GGATGCGGAG | 0.993
GTGTTCGT | 1.02
TTTATAAACA | 0.981
TGAGGTGGGA | 1.01
GTCGCCTC | 1.05
ACGGTCTCCG | 0.978
CCGGCGCTGA | 1.29
CGGCGGTTAA | 1.03
TTGGTGGGAC | 0.963
CGGGTCGCTA | 1.11
ATCAATGCCT | 1.05
CTTAGGGCAG | 0.936
AACAAAATCG | 1.02
CGATCACGTT | 0.988
TTATTGCGTT | 1.03
CTTTCGCAGA | 1.21
CCTGACGGAT | 1.08
TCGTGCGCGG | 1.02
TTCTCATCGT | 0.972
TTAATGCTTG | 0.984

Sequence | switch fluorescence ratio
AATGGTATCC | 1.02
CTGATGGGTC | 0.952
CTGCCTGGGC | 1.01
TTCGTATAT | 1.03
AGCTGCGGAG | 0.993
CGACGCGAAA | 3.16
TGGGGGCTGA | 1.04
GGATCTGTG | 0.997
TTCCAGGTGT | 1.06
GTGAGAGGCA | 1.05
CAGGAGCCTT | 1.05
AGTTACATC | 1.04
GACGCGTCTA | 1
ACGGACTTGA | 1.21
GTCGGGGTGG | 0.986
ATCGTTCACT | 1
GTGGTGTAGT | 1.02
GGAATAATGG | 1.03
TCCTTTTTTC | 1.04
CGAGGACGCG | 1
GTGAGTATGT | 0.982
TTGAATGACG | 0.965
CACGACCGAA | 0.993

Sequence | switch fluorescence ratio
CCGGCATGGG | 1.12
TGTTTTCTAA | 1.01
TAGGCTCTGG | 1.01
TTAGAGTA | 1.03
AAGATTACGG | 1.18
ACATCGTATG | 1.01
TAACCAGGGA | 1
AACAGCAACG | 1.03
TAGGAGAATG | 0.994
CGGATGTCGG | 0.914
AATAAGTTCG | 0.986
CGACTAAAG | 0.981
CATTTACGTA | 1.17
TCTCATGTCG | 1.04
TTATTGTCAG | 1.07
ACTATTATAA | 1.03
AAGGAGCAGG | 1.14
GAGGCTAGGA | 1.01
TTAATTGTCA | 1.02
GGAGAATTAA | 1
AATATGCGCA | 0.985
CGATGACAGC | 1.03
GGTAGGCTTG | 0.999

Sequence | switch fluorescence ratio
CTTTTATAAC | 1.01
GGCATCTGGC | 1.03
TGACTGTCGT | 0.961
GATGGCAGTG | 1.02
CTAGTTTATT | 0.996
GAACTAGGG | 0.963
GGACCGAGGT | 0.978
CTGAGGGGG | 1.01
CATCACATTT | 1.05
CCGGCGCGAG | 4.66
TGTGGGGTAC | 1.04
GAGATCTCGG | 0.985
AAGATATACA | 1.02
GATTACCCGG | 1.03
TCCCAAAGTA | 1.01
AATTGCCGGC | 0.985
TTGTTGCG | 0.896
GACATGAAAC | 1.02
GGTTTAACTA | 0.965
TGTTCTGATG | 0.984
ACTTGCAGTA | 1.03
TCAGCCAGAC | 3.87
TAGCGTCGTC | 0.985

Sequence | switch fluorescence ratio
TGTTTTACAT | 0.98
AGGTGATTC | 1
ATTAGGGGG | 0.998
TATTTTATGC | 0.985
CAGTCGCGCC | 1.05
TTTTAGATCC | 0.973
GCCGAATATT | 1.02
TGATGCGTTA | 1.02
AGATCCGGCC | 0.953
ACAAGAAGTC | 1.03
TATAATATCT | 0.992
TTGAGCTCCA | 0.985
TGCCAGATGG | 1.04
TTATGCTCGA | 1
CTCTAATCTG | 1.05
ATTGTAGATG | 1.02
CATCTAGAAC | 1.21
CCGAGCGGGG | 1.5
AGACAGATAT | 0.964
GGCGCCACGG | 0.981
TAGGGTCGAG | 0.968
CGCGGCCGCC | 0.981
GAGATTCTTT | 0.985

Sequence | switch fluorescence ratio
GGTATCTCCA | 1.01
CACGGTAAAA | 1.08
AAGTGTTTCA | 0.996
GGGCAGGTGC | 0.991
TCGGACGTGT | 0.927
CGTAGAACTT | 0.989
TCGTCATGGT | 1.05
ATAGGAGGTT | 1
TAGGTTGTTT | 1
CTACAATTGT | 1.03
GGACTAACAT | 1.15
CACCTACATT | 1.13
TGAATTTCGT | 1.01
AGAGTGATAG | 1.01
GCTAGGGCGC | 0.977
TATTTGTG | 0.985
ATAACCGTGA | 1.06
ATTCGTAACA | 0.953
GAGGGATTTA | 1.03
